Experimental findings from ChEMBL document CHEMBL4888484, “Replenishing the malaria drug discovery pipeline: Screening and hit evaluation of the MMV Hit Generation Library 1 (HGL1) against asexual blood stage Plasmodium falciparum ,using a nano luciferase reporter read-out” (2022) are described below.

Screen size: about 150,000 compounds; about 540 (0.36%) showed an effect of 50% or more. This is one part of the list.

The assay deals with Plasmodium falciparum. In words: Primary screen in NF54 nanoGlo assay, in single point, at 2uM, 72h; a lower Z score goes with more inhibition. The class given is functional, Erythrocyte. The conditions noted are these: timepoint 72 hour.
Usually % Inhibition stands for the drop in the measured response relative to a control, in per cent. `CC(=O)N(C[C@H]1CCCO1)c1nc2ccc(F)cc2s1`: the “% Inhibition” value is -6% and the Z score is 0.86.
For `Cc1cc(C)nc(NC(=O)N(C)CCO)c1` the same measures were -11% and 1.
Take `O=S(=O)(Nc1ncn(-c2ccccc2)n1)c1cccs1`: the “% Inhibition” value was -9% and the Z score is on record as 1.24.
For `CCN(C(C)=O)c1nc(CN(C)Cc2cc(C)on2)cs1` the same measures were 4% and -0.67.
For `COCc1cc(N[C@H]2CCCc3nn(C)cc32)ncn1`, in that order: 8% and -1.51.
For `COc1cc([C@H]2CC(=O)Nc3ccsc32)ccc1O`, in that order: 0% and 0.07.
As to `CC(C)N1CC[C@@H](CC(=O)O)[C@@H](Cc2nc3ccccc3n2C)C1`, the “% Inhibition” value is 2% and the Z score is -0.25.
For `CCCN(CC#N)S(=O)(=O)c1cccc(F)c1C`, in that order: -13% and 1.28.
For `CN=C(NCCCc1nc(C)no1)NCc1ccc(F)cc1` the same measures were 2% and -0.31.
Regarding `CC(=O)NCCNC(=O)[C@H]1CCc2[nH]cnc2C1`, the “% Inhibition” value is on record as -17% and the Z score was 2.91.
For `COCCCNC(=O)CCN(CCC(C)C)C(=O)c1ccoc1`, in that order: -8% and 0.74.
For `CCS(=O)(=O)c1ccc(O)c(-n2ccnc2-c2ccc(CO)o2)c1`, in that order: 0% and 0.08.
For `C[C@H]1CN(c2cc(Oc3cccc(F)c3)ncn2)CCN1Cc1cccc(C(F)(F)F)c1`, the “% Inhibition” value is recorded as -5% and the Z score stood at 0.56.
For the compound `Cc1nc(CN[C@H]2CC(C)(C)OC2(C)C)oc1C`, the “% Inhibition” value was -6% and the Z score is 0.88.
For `Cn1cc(C(=O)Nc2nc3cc4c(cc3s2)OCCO4)cn1`, in that order: 2% and -0.24.
For `Cc1ccc(NC(=O)[C@H](C)C(=O)O)c(C)c1O` the same measures were -9% and 1.37.
For `COc1ccc(NC(=O)c2ccc(NC(=O)CC3(CC(=O)O)CCCCC3)cc2)cc1` the same measures were 16% and -1.86.
For `CN(C)S(=O)(=O)c1cc(C(=O)N2CCCO2)co1`, the “% Inhibition” value is recorded as 33% and the Z score is reported as -0.78.
For `Cn1c(=O)c2ccccc2n(CC(=O)N2CCCc3ccccc32)c1=O` the same measures were 0% and -0.07.
Take `CC[C@@H](Cn1ccnc1)NC(=O)c1c(C)oc2c1C(=O)CCC2`: the “% Inhibition” value turned out to be 5% and the Z score is on record as -0.76.
Consider `CC(=O)N1Cc2ccccc2C[C@H]1C(=O)N1CCC(CC(=O)N(C)C)CC1`, for which the “% Inhibition” value was determined as 3% and the Z score is on record as -0.65.
For `Cc1cccc2c1c(-c1cccc(C(=O)N[C@H]3CCN(C)C3=O)c1)nn2C`, the “% Inhibition” value was -14% and the Z score was 2.66.
For `CC(C)(C)c1ccc(Cn2c(C(=O)Nc3ccc(C(F)(F)F)cc3)cc3cc(NC(=O)C4CCC4)ccc32)cc1` the same measures were -10% and 1.1.
For `C=C(C)C[C@H](C)C(=O)Nc1nccc(C)n1`, in that order: -1% and 0.19.
